# Source: patent US10561143B2, “Fungicidal composition having synergistic effect” (JIANGSU HUIFENG AGROCHEMICAL CO., LTD., priority 2013, dated 2020)
# Test system: downy mildew pathogens of grape
# Test: Toxicity test on downy mildew pathogens of grape (disease index and control effect on whole grape plants, EC50 and co-toxicity coefficient)
# [1] = Table 7, standard benziothiazolinone
# [2] = Table 10, standard printed as benziothiazolinone hydrochloride
# [3] = Table 2, standard benziothiazolinone
# [4] = Table 3, standard benziothiazolinone
# [5] = Table 4, standard benziothiazolinone
# [6] = Table 5, standard benziothiazolinone
# [7] = Table 6, standard benziothiazolinone
# [8] = Table 8, standard benziothiazolinone
# [9] = Table 9, standard benziothiazolinone
smiles,measurement,setting,value
C[C@@]1(c2ccc(Oc3ccccc3)cc2)OC(=O)N(Nc2ccccc2)C1=O (racemic) [Famoxadone],ATI (actual toxicity index),[1],82.26
Cl.O=c1[nH]sc2ccccc12 [Benziothiazolinone hydrochloride],ATI (actual toxicity index),[2],100
O=c1[nH]sc2ccccc12 [Benziothiazolinone],ATI (actual toxicity index),[3],100
same,ATI (actual toxicity index),[4],100
same,ATI (actual toxicity index),[5],100
same,ATI (actual toxicity index),[6],100
same,ATI (actual toxicity index),[7],100
same,ATI (actual toxicity index),[1],100
same,ATI (actual toxicity index),[8],100
same,ATI (actual toxicity index),[9],100
O=C(Nc1ccccc1-c1ccc(Cl)cc1)c1cccnc1Cl [Boscalid],ATI (actual toxicity index),[5],81.48
CSC1=N[C@@](C)(c2ccccc2)C(=O)N1Nc1ccccc1 [Fenamidone],ATI (actual toxicity index),[6],82.86
O=[N+]([O-])c1cc(C(F)(F)F)c(Cl)c([N+](=O)[O-])c1Nc1ncc(C(F)(F)F)cc1Cl [Fluazinam],ATI (actual toxicity index),[2],114.5
O=C(NCc1ncc(C(F)(F)F)cc1Cl)c1c(Cl)cccc1Cl [Fluopicolide],ATI (actual toxicity index),[7],79.44
CO/C=C(/C(=O)OC)c1ccccc1COc1cccc(C(F)(F)F)n1 [Picoxystrobin],ATI (actual toxicity index),[9],92.62
OC(Cc1ccccc1Cl)(Cn1nc[nH]c1=S)C1(Cl)CC1 (stereo not drawn) [Prothioconazole],ATI (actual toxicity index),[4],75.79
CCC(C)(NC(=O)c1cc(Cl)c(C)c(Cl)c1)C(=O)CCl (stereo not drawn) [Zoxamide],ATI (actual toxicity index),[3],81.9
COC(=O)N(OC)c1ccccc1COc1ccn(-c2ccc(Cl)cc2)n1 [pyraclostrobin],ATI (actual toxicity index),[8],110.85
